SMILES strings stand for the structures.

The term melting point denotes the temperature of the solid-liquid transition. `CC(C)c1nc(COCCO)n(C)c1Sc1cc(Cl)cc(Cl)c1` registered a melting point of 89 to 90 °C.

The values above are taken from a melting point compilation (Tetko et al.; mined from patent text by program, amines drawn as free bases though some values may be those of a salt).
